# Data as given in article PMC4336329 (PLoS ONE, 2015).
# Screen size: about 310,000 compounds; about 2,200 (0.71%) showed an effect of 50% or more. Effects have a minus sign here. This is one part of the list.
# Target: human ether-à-go-go-related gene (hERG) potassium channel (human, UniProt Q12809)
# Test: primary screen, population patch clamp on CHO cells stably expressing hERG
# Chain of human ether-à-go-go-related gene (hERG) potassium channel (Q12809 whole entry, looked up): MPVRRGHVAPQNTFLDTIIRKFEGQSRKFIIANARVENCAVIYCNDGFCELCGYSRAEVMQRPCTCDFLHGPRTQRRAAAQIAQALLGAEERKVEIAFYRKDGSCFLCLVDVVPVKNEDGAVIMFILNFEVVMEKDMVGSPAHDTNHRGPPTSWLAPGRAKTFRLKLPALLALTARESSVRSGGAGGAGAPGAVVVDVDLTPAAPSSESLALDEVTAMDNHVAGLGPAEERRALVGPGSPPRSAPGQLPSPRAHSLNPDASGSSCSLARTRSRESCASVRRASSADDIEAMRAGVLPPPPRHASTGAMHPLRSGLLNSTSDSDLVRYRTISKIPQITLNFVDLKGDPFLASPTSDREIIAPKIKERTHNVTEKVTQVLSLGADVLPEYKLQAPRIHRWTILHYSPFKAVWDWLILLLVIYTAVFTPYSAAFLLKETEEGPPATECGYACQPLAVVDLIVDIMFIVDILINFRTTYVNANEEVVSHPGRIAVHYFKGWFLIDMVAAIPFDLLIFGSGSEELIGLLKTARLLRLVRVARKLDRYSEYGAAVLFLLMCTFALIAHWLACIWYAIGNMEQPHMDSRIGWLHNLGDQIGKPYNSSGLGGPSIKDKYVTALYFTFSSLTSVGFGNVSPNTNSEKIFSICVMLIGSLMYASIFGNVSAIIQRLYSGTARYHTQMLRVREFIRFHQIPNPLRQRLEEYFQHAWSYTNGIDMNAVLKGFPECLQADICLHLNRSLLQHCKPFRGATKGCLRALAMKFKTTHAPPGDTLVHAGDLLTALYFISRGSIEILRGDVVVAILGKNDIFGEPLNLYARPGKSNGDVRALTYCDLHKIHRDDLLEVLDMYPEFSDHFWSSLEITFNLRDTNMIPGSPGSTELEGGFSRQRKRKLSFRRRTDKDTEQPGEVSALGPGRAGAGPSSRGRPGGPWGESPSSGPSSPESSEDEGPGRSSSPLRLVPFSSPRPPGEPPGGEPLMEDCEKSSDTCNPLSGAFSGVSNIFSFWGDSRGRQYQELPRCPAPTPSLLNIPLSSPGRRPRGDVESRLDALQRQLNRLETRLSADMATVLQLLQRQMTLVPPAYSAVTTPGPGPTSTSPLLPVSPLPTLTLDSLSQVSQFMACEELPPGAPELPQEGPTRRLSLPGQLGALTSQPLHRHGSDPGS
row,SMILES,"hERG current change (%, negative = inhibition) at 1uM [%]"
1,Cc1ccc(NC(=O)NNC(=O)c2cc3ccccc3cc2O)cc1C,13.5
2,Cl.O=C(NCCc1ccccn1)c1cc(-c2cccc3ccccc23)nc2ccccc12,-5.02
3,C/C(=C\c1cc(C(=O)O)c(C)o1)CO,5.92
4,CC(C)n1c(C(O)c2ccc3c(c2)OCO3)nc2ccccc21 (stereo not drawn),4.48
5,CC1Cc2nc(SCC(=O)Nc3ccc4c(c3)OCO4)n(Cc3ccccc3)c(=O)c2S1 (stereo not drawn),2.09
6,Cc1ccc(C(=O)NCc2occc2C(=O)O)o1,11
7,CCN(CC)C(=O)C1CCN(S(=O)(=O)c2ccc(-n3cnnn3)cc2)CC1,3.52
8,O=C(NCCc1ccco1)c1cc(COc2cccc(C(F)(F)F)c2)on1,10.5
9,C[C@H](NC(=O)c1ccccc1)C(=O)Nc1nc(-c2ccccn2)cs1,2.61
10,CC(C)(C)NC(=O)CSc1nc2ccc(NC(=O)CSc3nnnn3Cc3ccccc3)cc2s1,4.1
11,CC(C)OC(=O)CSc1nnc2c3ccccc3n(C)c2n1,5.55
12,CCOC(=O)CSc1nnc(Cc2cc(=O)[nH]c(=O)[nH]2)n1-c1ccc(Cl)cc1,9.54
13,O=C(COc1cccc(NC(=O)c2ccccc2)c1)c1ccc(F)cc1,-21.4
14,O=C(CSc1nnnn1Cc1ccccc1)Nc1cccc(F)c1,5.7
15,CCNC(=O)C1CC(=O)N(CCCc2ccccc2)C(=Nc2ccccc2)S1 (stereo not drawn),14.2
16,COc1cccc(COC(=O)c2ccc3c(c2)NC(=O)C(C)S3)c1OC (stereo not drawn),13.8
17,Cc1cc(C)nc(SCC(=O)Nc2ccnc3ccccc23)n1,6.55
18,COc1ccc(NC(=O)CCCSc2nc(-c3ccco3)cc(C(F)(F)F)n2)cc1OC,16.6
19,Cc1ccc(C(=O)N2CCCC2)c(F)c1F,-9.73
20,O=C(Cn1c(=O)oc2ccccc21)NC(=O)NCc1ccco1,11.3
21,Cc1cccc(NC(=O)c2nc[nH]c2C(=O)NCC(=O)OCc2ccccc2)c1,15.9
22,CN1C(=O)c2ccc(C(=O)NC3CCCCC3)cc2C1=O,8

row,SMILES,"hERG current change (%, negative = inhibition) at 1uM [%]"
1,CCOc1ccc(C2C(C(=O)c3ccc(C)o3)=C(O)C(=O)N2c2nc(C)c(C(=O)OC)s2)cc1 (stereo not drawn),9.88
2,COc1ccc(NC(=O)COc2nc3ccccc3nc2N2CCOCC2)c(OC)c1,14.2
3,O=C(Nc1nc(-c2ccncc2)cs1)c1ccc(S(=O)(=O)N2CCOCC2)cc1,13
4,COc1ccccc1-c1nnc(SC(C)C(=O)Nc2ccc(C(N)=O)cc2)o1 (stereo not drawn),13.3
5,Oc1ccccc1N1CCN(c2ncnc3scc(-c4ccc(F)cc4)c23)CC1,14.3
6,CN(CCC#N)c1ncnc2scc(-c3ccccc3)c12,-0.143
7,Cc1cc2oc(C(=O)NCc3ccccc3)cc(=O)c2cc1C,14
8,O=C(O)C1Sc2[nH]c(=O)sc2C2c3cc(Cl)ccc3OC(=O)C12 (stereo not drawn),16.9
9,Nc1nc(SCC(=O)Nc2cc(C(F)(F)F)ccc2N2CCOCC2)n[nH]1,7.59
10,COc1ccc(C)cc1S(=O)(=O)Nc1ccc2c(c1)OCCO2,15.9
11,Cc1ccc(C2(c3noc(CN(C)CCCN4CCOCC4)n3)CCCC2)cc1,7.43
12,O=S(=O)(c1ccc(Br)cc1)c1nc(-c2ccccc2)oc1NCCN1CCOCC1,7.08
13,c1ccc(Cn2c(SCc3nc4ccccc4s3)nnc2-c2ccco2)cc1,6.85
14,CCCn1nnc(NC(=O)/C=C/c2cc(Br)ccc2OC)n1,6.8
15,O=C1c2ccccc2C(=O)N1CN(C(=O)COc1ccccc1)c1ccccc1,7.23
16,Cc1cnc(CNC(=O)C2CCC(=O)N(Cc3ccc(Cl)cc3)C2)[nH]1 (stereo not drawn),22.3
17,Cc1cccc(N/N=C/c2ccc(C)s2)c1,18.7
18,Cc1ccc(NC(=O)COc2ccccc2C(=O)NCc2ccccc2)cc1,-15.5
19,O=C(COC(=O)[C@@H]1CCCN1S(=O)(=O)c1ccc(Cl)cc1)NCC(F)(F)F,13.8
20,CC(=O)CC(c1ccccc1)c1c(O)c2ccccc2oc1=O.[Na] (stereo not drawn),15.2
21,COC(=O)/C=c1/sc2nc3ccccc3n2c1=O,6.81
22,CS(=O)(=O)NN1C(=O)c2ccccc2NC1c1ccccc1 (stereo not drawn),11

row,SMILES,"hERG current change (%, negative = inhibition) at 1uM [%]"
1,O=P(c1ccccc1)(c1ccccc1)C(c1ccco1)N1CCOCC1 (stereo not drawn),14.2
2,COc1cc(C2C(C#N)=C(N)Oc3cc(C)oc(=O)c32)ccc1OC(=O)N1CCOCC1 (stereo not drawn),-3.47
3,O=C(O)c1ccc(/C=C2\SC(=S)N(NC(=O)c3ccc(Br)cc3)C2=O)cc1,0.175
4,CCN1C(=O)C2(C(C(=O)c3cc4ccccc4o3)=C(O)C(=O)N2CCCN2CCOCC2)c2ccccc21 (stereo not drawn),10.6
5,COC(=O)c1ccc(-n2c(C)cc(C(=O)COC(=O)CC3Sc4ccccc4NC3=O)c2C)cc1 (stereo not drawn),9.47
6,COc1ccc(-c2ccc(N)cn2)cn1,15.9
7,CCCC(c1nnnn1Cc1cccs1)N1CCN(C2CCCC2)CC1.Cl (stereo not drawn),-8.2
8,CCCc1nn(C)c(C(=O)Nc2cccc(C)c2)c1Cl,13.9
9,O=C(Nc1ccccc1C(=O)NCc1ccccc1)c1ccco1,10.1
10,Cc1cc([N+](=O)[O-])nn1Cc1c(F)c(F)c(F)c(F)c1F,2.91
11,CCC(NC(=O)CNC(=O)CNC(=O)c1ccc(Cl)cc1Cl)c1ccc(C)cc1 (stereo not drawn),20.4
12,COc1cccc(CN(C)CC2CCCN(CCc3ccc(Cl)cc3)C2)c1OC (stereo not drawn),-3.32
13,CC1CC(C)CN(C(=O)c2ccc(Br)c(S(=O)(=O)N3CCOCC3)c2)C1 (stereo not drawn),6.63
14,Cc1ccc(CS(=O)(=O)c2ccc(C(=O)N3CCN(c4ccccn4)CC3)cc2[N+](=O)[O-])cc1,1.35
15,Nc1nc(N2CCOCC2)nc(N(c2ccccc2)c2ccccc2)n1,4.13
16,COc1ccc2[nH]c3c(=S)nc[nH]c3c2c1,12.7
17,O=C(O)C1CCCCC1C(=O)Nc1ccccn1 (stereo not drawn),14.9
18,COc1ccccc1NC(=O)C(C)OC(=O)C1CCC(C(C)(C)C)CC1 (stereo not drawn),9.4
19,COc1ccc(OCC(=O)NNC(=O)C(=O)Nc2ccc(C)cc2)cc1,11.1
20,CC(C)c1ccc(NS(=O)(=O)c2ccc(Cl)nc2)cc1,15.6
21,Cc1cccc(CCNC(=O)CCc2c(C)nc3ncnn3c2C)c1,4.74
22,CCOC(=O)CN1C(=O)C(=O)N(Cc2c(Cl)cccc2Cl)C1=O,13.8

row,SMILES,"hERG current change (%, negative = inhibition) at 1uM [%]"
1,COC(=O)c1cc(COc2ccc3c4c(c(=O)oc3c2)CCCC4)c(C)o1,-0.702
2,CCC(Sc1nnc2c3ccccc3n(CC)c2n1)C(=O)Nc1sc2c(c1C#N)CCCC2 (stereo not drawn),-4.27
3,COc1ccc2cc(C)c3nnc(SCC(=O)Nc4nc(-c5ccc(F)cc5)cs4)n3c2c1,6.19
4,CCCSc1ccc2nc(NC(=O)OC)[nH]c2c1,11.2
5,COc1ccc(CN2CCN(c3ncccn3)CC2)c(C)c1C,-3.18
6,CC(=O)NC(Cc1ccccc1)C(C)=O (stereo not drawn),-3.72
7,COCCCNC(=O)/C=C/c1ccc(Cl)cc1Cl,3.21
8,Cc1ccc(-c2nc3ncccc3o2)cc1NC(=O)C(C)C,13.5
9,CCOc1ccc(OCC)c(S(=O)(=O)n2cc(C)nc2CC)c1,26.7
10,O=C(CN1CCN(C(=O)CNC(=O)c2ccc3c(c2)OCO3)CC1)Nc1cccc(F)c1,10.4
11,CCN1/C(=c2/s/c(=C3/C(=O)N(c4ccccc4)N=C3C)n(CC)c2=O)C=Cc2ccccc21,-5.43
12,CCCc1nn(C)c2c1C(c1cccnc1)C(C#N)=C(N)O2 (stereo not drawn),13.8
13,COc1ccc(OC)c(NC(=O)c2ccc3c(c2)CCN3S(C)(=O)=O)c1,12.7
14,COc1ccccc1NS(=O)(=O)c1cccc(C(=O)N/N=C(\C)c2ccc3c(c2)OCCO3)c1,6.92
15,O=C(Nc1cccc(S(=O)(=O)Nc2ccccc2F)c1)c1ccc2ccccc2n1,10.5
16,COc1ccc(/C=N/NC(=O)c2ccc(CN3C(=O)c4cccc5cccc3c45)cc2)cc1O,4.23
17,Cc1ccn(C(=O)c2cc3c(C)nn(-c4ccccc4)c3s2)n1,9.37
18,S=c1nccc(-c2cc(Cl)sc2Cl)[nH]1,-1.94
19,CCCC(=O)Nc1nc(C)c(C(C)=O)s1,7.11
20,O=C(COC(=O)CCC(=O)c1ccccc1)NNC(=O)c1ccc(Cl)cc1,11.1
21,CC(C)c1ccc(-c2nc(N3CCCCC3)[nH]c(=O)c2C#N)cc1,12.6
